Measurements: PubChem BioAssay AID493208 (National Center for Advancing Translational Sciences (NCATS), 2011)
Hit rate of the full screen: of about 44,000 compounds, about 340 (0.77%) were called active. Inconclusive results (about 5%) are left out. The call rests on the fitted dose curve; in most records, active means well fitted inhibition curve with a large enough effect; inconclusive means small, poorly fitted or top-dose-only effect; inactive means flat fitted curve, though single readings scatter. The list shows a part of the results.

Assay: Acumen qHTS Assay for Inhibitors of the mTORC1 Signaling Pathway in MEF (Tsc2-/-, p53-/-) Cells: Sytravon; further: nearly all actives have a fitted effect of over 50% in size;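 on activity change, negative = inhibition: plate controls were DMSO for no effect and rapamycin for full effect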
Settings: phospho-rpS6 immunofluorescence/PI, 24 h; series mostly up to 38.3 µM; activity change, negative = inhibition: at the top concentration
Procedure, shortened: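 Tsc2-/-, p53-/- MEFs (empty-vector stable line) in DMEM + 10% FBS were treated with compounds 24 h at 37 degree Celsius, fixed, and immunostained for phospho-rpS6 (Alexa-488) with propidium iodide counterstain. Laser-scanning cytometry gave % positive cells, normalized against 7.5 nM rapamycin and DMSO.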
Potency means the concentration at half of the fitted maximal effect.

Row | Compound | activity change, negative = inhibition | Potency
1 | Cc1ccc(-n2nc(C(=O)N(C)c3ccc(C)c(C)c3)c3c4ccccc4n(C)c3c2=O)cc1 | inactive: -6.35% | –
2 | CCOC(=O)CN1C(=O)N(c2ccc(C)c(C)c2)S(=O)(=O)c2ccccc21 | inactive: -5.9% | –
3 | Cc1ccc(CN2CCC(CNC(=O)c3cnn(-c4ccc(C)cc4)c3C3CCN(C(=O)OC(C)(C)C)CC3)CC2)cc1 | inactive: -1.96% | –
4 | Cc1ccc(S(=O)(=O)N(CC(=O)Nc2cccnc2)c2cc(Cl)ccc2C)cc1 | inactive: -18.1% | –
5 | Cc1cc(=O)n(CC(=O)Nc2ccc(Cl)c(Cl)c2)c(-n2nc(C)cc2C)n1 | inactive: -12.9% | –
6 | CCOc1ccc(CNC(=O)C2CCCN(c3nn4cc(-c5ccc(OC)cc5)nc4s3)C2)cc1 (stereo not given) | inactive: -6.38% | –
7 | COc1ccc(NC(=O)CC2C(=O)N(c3ccccc3)C(=O)N2CCc2sccc2C)cc1 (stereo not given) | inactive: -5.24% | –
8 | Cc1cccc(NC(=O)CCCn2nc(C)c3c(C)n(-c4ccccc4)nc3c2=O)c1C | inactive: -1% | –
9 | CC(C)CCNc1nc2c(-c3ccccc3)nnn2c2ccccc12 | inactive: -18% | –
10 | Cc1ccc(C(=O)CSc2nc3cc(C(=O)NC4CCCC4)ccc3c(=O)n2CC2CCCO2)c(C)c1 (stereo not given) | inactive: 6.26% | –
11 | CCOc1ccc(CNC(=O)c2ccc(CSc3nc4ccncc4n3Cc3ccc(F)cc3)cc2)cc1 | inactive: 0.497% | –
12 | COc1cccc(NC(=O)c2oc3ccccc3c2NC(=O)c2ccccc2C)c1 | inactive: -0.563% | –
13 | O=C(CC1N=C2c3ccccc3N=C(SCc3cccc(F)c3)N2C1=O)NCc1cccs1 (stereo not given) | inactive: -4.08% | –
14 | COC(=O)c1ccccc1NC(=O)CSc1n[nH]c(CC(C)C)n1 | inactive: 1.66% | –
15 | Cc1nn(-c2ccccc2)c2nc(C3CC3)cc(C(=O)Nc3cccc(F)c3)c12 | inactive: -10.2% | –
16 | CCCCN(CCCC)CCCNC(=O)c1ccc2nc(N3CCCCC3)sc2c1 | inactive: -0.0538% | –
17 | Cc1ccc(CNC(=O)CCNS(=O)(=O)c2ccc3c(c2)CCCC(=O)N3)cc1 | inactive: -4.8% | –
18 | COc1ccc2c(c1)c1c(c(=O)n(-c3cc(Cl)ccc3C)c(=O)n1CC(=O)N1CCCC1)n2C | inactive: 0.318% | –
19 | COc1ccc(-c2nnn3c2nc(NCCc2ccc(OC)c(OC)c2)c2ccccc23)cc1 | inactive: -18.4% | –
20 | Cc1nn2c(=O)cc(COc3ccc(/C=C(\C#N)C(=O)Nc4ccccc4C)cc3)nc2s1 | inactive: -2.46% | –
21 | COc1ccc(OC)c(Nc2nc3ccccc3nc2-n2nc(C)cc2C)c1 | inactive: -0.796% | –
22 | COc1ccc(Cn2ccc3nc(C)c(C(=O)N4CCN(c5ccc(F)cc5)CC4)cc3c2=O)cc1 | inactive: -1.5% | –
23 | Cc1ccccc1NC(=O)c1c(NC(=O)c2ccccc2F)sc2c1CCC(C)C2 (stereo not given) | inactive: -4.97% | –
24 | COc1ccccc1NC(=O)c1ncn(-c2ccccc2)n1 | inactive: -0.175% | –

Row | Compound | activity change, negative = inhibition | Potency
25 | CCOC(=O)c1cccc(NC(=O)CCc2c(C)nn(-c3ccc(N4CCCCC4)nn3)c2C)c1 | inactive: -8.47% | –
26 | Cc1ccc(Sc2c(C)nn(C(C)(C)C)c2OC(=O)CC(C)C)cc1 | inactive: -1.45% | –
27 | Cc1cccc2c(=O)cc(CSc3ccccc3NC(=O)c3cccc(Cl)c3)[nH]c12 | inactive: 8.18% | –
28 | CCOc1ccc(-c2cc3c(=O)n(Cc4nc(-c5ccc(OCC)c(OC)c5)oc4C)ccn3n2)cc1Cl | inactive: 2.5% | –
29 | CCCCn1cc2c(c1-c1ccc(Br)cc1)c(=O)n(C)c(=O)n2C | inactive: 1.21% | –
30 | Cc1ccc2nc(CSc3nnc(NC(=O)C(C)C)s3)cc(=O)n2c1 | inactive: 2.25% | –
31 | Cc1cccc(OCC(=O)Nc2c(C(=O)Nc3ccc(F)cc3)oc3ccccc23)c1 | inactive: -11.6% | –
32 | Cc1cccc(N2C(=O)CSC23C(=O)N(C)c2ccccc23)c1 (stereo not given) | inactive: 1.45% | –
33 | COc1ccc(NCc2cc3ccc(OC)cc3n(CC(=O)Nc3ccc(C)c(C)c3)c2=O)cc1 | inactive: -6.62% | –
34 | O=c1c2sc3ccccc3c2n(Cc2cccc(Cl)c2)c(=O)n1Cc1ccccc1 | inactive: 0.328% | –
35 | COc1cc(NC(=O)NCCc2c(C)nn(C)c2C)cc(OC)c1OC | inactive: 0% | –
36 | CCCN1CCN(c2nnc(-n3cccc3C(=O)Nc3ccccc3C(F)(F)F)s2)CC1 | inactive: -5.76% | –
37 | CCOc1ccc(OCC)c(NC(=O)c2cnn(-c3ccc(F)cc3)c2-n2cccc2)c1 | inactive: -10.5% | –
38 | CCc1ccc(-n2nc(C)c3c(C)cc(=O)n(CC(=O)Nc4cc(Cl)ccc4OC)c32)cc1 | inactive: -14.1% | –
39 | CC(=O)Nc1ccc(S(=O)(=O)NCCc2csc3nc(-c4ccc(Cl)cc4)nn23)cc1 | inactive: -7.19% | –
40 | COc1ccc(S(=O)(=O)Nc2cccc(-c3ccc(N4CCCCCC4)nn3)c2)cc1OC | inactive: 4.78% | –
41 | CC(C)(C)OC(=O)N1CCC(c2c(C(=O)N3CCN(c4cccc(Cl)c4)CC3)cnn2-c2cccc(Cl)c2)CC1 | inactive: 3.87% | –
42 | CCc1ccc(NC(=O)C2CCCN(S(=O)(=O)c3ccc4[nH]c(=O)ccc4c3)C2)cc1 (stereo not given) | inactive: -0.0942% | –
43 | CCC1CN(C(=O)NCc2ccc(F)cc2)c2cc(C)ccc2O1 (stereo not given) | – | active: 20.7 µM
44 | CCOC(=O)C1CCN(C(=O)Cn2nc(C)n3c(cc4c(OC)cccc43)c2=O)CC1 | inactive: -3.48% | –
45 | COc1cccc(C(c2sc3nc(-c4ccco4)nn3c2O)N2CCC(C)CC2)c1 (stereo not given) | inactive: -0.107% | –
46 | O=C(CSc1ccnc(=O)[nH]1)NCc1ccc(F)cc1 | inactive: -9.67% | –
47 | Cc1cccc(N(C)S(=O)(=O)c2nnc(NC(=O)C(C)Oc3ccccc3)s2)c1 (stereo not given) | inactive: 8.33% | –
48 | CN1C(=O)c2ccccc2Sc2ccc(NC(=O)Cc3ccc(Cl)cc3)cc21 | inactive: 0.888% | –

Row | Compound | activity change, negative = inhibition | Potency
49 | COc1ccc(OC)c(CCNC(=O)c2ccc3c(c2)N(Cc2ccccc2)CCS3)c1 | inactive: 1.6% | –
50 | COC(=O)c1sccc1S(=O)(=O)N1CCN(c2cccc(C)c2)C(C)C1 (stereo not given) | inactive: -11.2% | –
51 | O=C(NCc1ccccc1)C1CCN(c2ncnc3c2nc2n3CCCCC2)CC1 | inactive: -4.23% | –
52 | CCOC(=O)c1cccc(NC(=O)C2COc3ccc(OC)cc3C2)c1 (stereo not given) | inactive: 2.15% | –
53 | Cc1ccc(CCNC(=O)C2CC(=O)N(CCc3ccc(C)cc3)C2)cc1 (stereo not given) | inactive: 1.43% | –
54 | O=C(NCc1ccc(Cl)cc1)c1ccc2c(c1)nnn2C1CCCC1 | inactive: 5.15% | –
55 | CCCCc1ccc(NC(=O)Cn2cnc3c(oc4ccccc43)c2=O)cc1 | inactive: -17.7% | –
56 | Cc1ccc(-n2cc(-c3ccccc3)c3c(N4CCC(C)CC4)ncnc32)cc1Cl | inactive: 11.5% | –
57 | COc1ccc(C)cc1NC(=O)CSc1nc(=O)n(Cc2ccco2)c2c1CCC2 | inactive: 0.896% | –
58 | Cc1nc2nc(NCc3ccccc3Cl)[nH]n2c(=O)c1Cc1ccccc1 | inactive: 4.45% | –
59 | CCOC(=O)c1cnc2c(C)cc(C)cc2c1NCCN1CCOCC1 | inactive: 1.38% | –
60 | O=C(Nc1ccccc1OCc1cc(=O)n2ccccc2n1)Nc1ccccc1C(F)(F)F | inactive: -14% | –
61 | CCCSC1=NC2(CCN(C(=O)NC3CCCCC3)CC2)N=C1c1ccc(C)cc1 | inactive: -2.31% | –
62 | Cc1ccccc1NC(=O)CSc1nc2c(oc3ccccc32)c(=O)n1Cc1ccco1 | inactive: 1.35% | –
63 | Cc1ccc(C)c(OCc2nc3ccccc3n2C)c1 | inactive: -11.6% | –
64 | COc1ccccc1/C=C/c1nc(C#N)c(N(C)C)o1 | inactive: 2.27% | –
65 | Cc1c2cnn(CC(=O)Nc3cccc(C(F)(F)F)c3)c(=O)c2c(C)n1Cc1ccccc1Cl | inactive: -2.82% | –
66 | CCOC(=O)N1CCc2c(sc3c2c(=O)n(-c2ccc(CC)cc2)c(=O)n3CC(=O)c2ccc(F)cc2)C1 | inactive: -2.57% | –
67 | COc1cc(C(=O)Nc2ccc3nc(SCc4ccccc4)sc3c2)cc(OC)c1OC | inactive: -14.6% | –
68 | Cc1ccc(C(=O)NCC(c2cccs2)S(=O)(=O)c2cccs2)cc1 (stereo not given) | inactive: 0.398% | –
69 | CCC(Sc1nncn2c1cc1occc12)C(=O)Nc1ccc(C)c(Cl)c1 (stereo not given) | inactive: 0% | –
70 | CCN(C(=O)CSc1nc2ccccc2n1Cc1cc(C)ccc1C)c1ccccc1 | inactive: 0% | –
71 | Cc1c2cnn(CC(=O)NC(C)C)c(=O)c2c(C)n1Cc1ccccc1Cl | inactive: 1.8% | –
72 | COc1cccc(C2C(C(=O)Nc3ccc(C)cc3C)=C(C)Nc3c(C(=O)Nc4cccc(C)c4)cnn32)c1OC (stereo not given) | inactive: -2.87% | –

Row | Compound | activity change, negative = inhibition | Potency
73 | COc1cccc(N2CCN(C3C(=O)c4ccccc4N3C(C)=O)CC2)c1 (stereo not given) | inactive: 1.36% | –
74 | CCOc1ccc(OCC)c(NC(=O)CN(C)S(=O)(=O)c2ccc3c(c2)CCCC(=O)N3)c1 | inactive: 6.82% | –
75 | O=C(Cn1nc(-c2ccc(Cl)cc2)ccc1=O)NCc1ccccc1Cl | inactive: 5.97% | –
76 | CCCNC(=O)C1CCC(Cn2c(=O)c3sccc3n(CC(=O)N3CCC(C)CC3)c2=O)CC1 (stereo not given) | inactive: 0.0967% | –
77 | Cc1cccc(OCC(=O)N(Cc2sccc2C)C2CCS(=O)(=O)C2)c1 (stereo not given) | inactive: -0.77% | –
78 | COc1ccc(N2CCN(C(=O)c3ccc(-c4nc(COc5ccccc5)c(C)o4)cc3)CC2)cc1 | inactive: -6.45% | –
79 | COc1ccc(N2CCN(C(=O)c3nc(SC)ncc3Cl)CC2)cc1 | inactive: -6.13% | –
80 | COc1ccc(C(C)C)cc1S(=O)(=O)NCCc1c(C)[nH]c2ccc(C)cc12 | inactive: -29.9% | –
81 | CC(C)(C)OC(=O)N1CCC(c2c(C(=O)N3CCc4ccccc4C3)cnn2-c2ccc(F)cc2)CC1 | inactive: 2.18% | –
82 | CC1=C(c2ccc(C)c(C)c2)S(=O)(=O)N=C1N1CCC(C(=O)NCc2ccc(C)o2)CC1 | inactive: -1.16% | –
83 | Cc1ccccc1OCCn1c(CCNC(=O)C(C)(C)C)nc2ccccc21 | inactive: -0.815% | –
84 | CC(NC(=O)CCCn1c(=O)c2cccn2c2cccnc21)c1ccccc1 (stereo not given) | inactive: -0.111% | –
85 | CCOc1ccc(-c2nc(C#N)c(NCCCOC)o2)cc1 | inactive: -28.2% | –
86 | CCc1ccc(CNC(=O)c2ccc(-c3nc(CS(=O)(=O)c4ccccc4)c(C)o3)cc2)cc1 | inactive: -0.754% | –
87 | Cc1coc2c(C)c3oc(=O)c(CCC(=O)NCCc4ccc(Cl)cc4)c(C)c3cc12 | inactive: -4.01% | –
88 | CCN(CCCNC(=O)c1cc2c(=O)n(CC)c3ccccc3c2s1)c1ccccc1 | inactive: -1.06% | –
89 | COc1ccc(OC)c(CNC(=O)Cc2ccc(NC(=O)N3CCCCc4ccccc43)cc2)c1 | inactive: -9.86% | –
90 | COCCCNC(=O)c1c(NC(=O)Cc2coc3cc(C)cc(C)c23)sc2c1CCCC2 | inactive: -13.8% | –
91 | CCc1ccc(CNC(=O)CSc2cc(=O)n(C)c3ccc(Cl)cc23)cc1 | inactive: 4.33% | –
92 | CC(NC(=O)CCSCc1ccccc1F)c1ccccc1 (stereo not given) | inactive: 14.3% | –
93 | COc1ccc(-c2cc(-c3ccccc3)nc(SCC(=O)CC(=O)OC(C)C)c2C#N)cc1 | inactive: -6.96% | –
94 | O=C(c1ccc2c(c1)N(Cc1ccccc1F)C(=O)c1ccccc1S2(=O)=O)N1CCCC1 | inactive: -9.74% | –
95 | Cc1cc(F)ccc1NCc1ccccc1-c1nnc(-c2ccccc2Cl)o1 | inactive: -9.47% | –
